Source: the supplement of paper PMC8728848
This is one part of the list.

Legend:
Test in all cases: glycan array binding signal (z-score within array); higher = stronger binding
Conditions in all cases: glycan notation: IUPAC condensed, linker removed; mutation: I144G
[1] = biological target: Neu5Ac(a2-3)Gal(b1-4)GlcNAc(b1-2)Man(a1-3)[Neu5Ac(a2-6)Gal(b1-4)GlcNAc(b1-2)Man(a1-6)]Man(b1-4)GlcNAc(b1-4)GlcNAc
Procedure, shortened: (§1)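 The binding signal is a Z-score computed within each array and averaged over linkers. Arrays of the same protein sequence at different concentrations or buffers were also averaged together. Data originate from 3228 arrays in the Consortium for Functional Glycomics database, kept only where the protein sequence was available.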

[2] = biological target: Neu5Ac(a2-3)Gal(b1-4)GlcNAc(b1-2)[Neu5Ac(a2-3)Gal(b1-4)GlcNAc(b1-4)]Man(a1-3)[GlcNAc(b1-4)][Neu5Ac(a2-3)Gal(b1-4)GlcNAc(b1-2)[Neu5Ac(a2-3)Gal(b1-4)GlcNAc(b1-6)]Man(a1-6)]Man(b1-4)GlcNAc(b1-4)GlcNAc
Procedure, shortened: as §1

[3] = biological target: Neu5Ac(a2-3)Gal(b1-4)GlcNAc(b1-2)[Neu5Ac(a2-3)Gal(b1-4)GlcNAc(b1-4)]Man(a1-3)[GlcNAc(b1-4)][Neu5Ac(a2-3)Gal(b1-4)GlcNAc(b1-4)Man(a1-6)]Man(b1-4)GlcNAc(b1-4)GlcNAc
Procedure, shortened: as §1

[4] = biological target: Neu5Ac(a2-3)Gal(b1-4)GlcNAc(b1-2)[Neu5Ac(a2-3)Gal(b1-4)GlcNAc(b1-6)]Man(a1-6)[Neu5Ac(a2-3)Gal(b1-4)GlcNAc(b1-2)Man(a1-3)][GlcNAc(b1-4)]Man(b1-4)GlcNAc(b1-4)GlcNAc
Procedure, shortened: as §1

[5] = biological target: Neu5Ac(a2-3)Gal(b1-4)GlcNAc(b1-3)Gal
Procedure, shortened: as §1

[6] = biological target: Neu5Ac(a2-3)Gal(b1-4)GlcNAc(b1-3)Gal(b1-3)GlcNAc
Procedure, shortened: as §1

[7] = biological target: Neu5Ac(a2-3)Gal(b1-4)GlcNAc(b1-3)Gal(b1-4)GlcNAc
Procedure, shortened: as §1

[8] = biological target: Neu5Ac(a2-3)Gal(b1-4)GlcNAc(b1-3)Gal(b1-4)GlcNAc(b1-2)Man(a1-3)[Neu5Ac(a2-3)Gal(b1-4)GlcNAc(b1-3)Gal(b1-4)GlcNAc(b1-2)Man(a1-6)]Man(b1-4)GlcNAc(b1-4)GlcNAc
Procedure, shortened: as §1

[9] = biological target: Neu5Ac(a2-3)Gal(b1-4)GlcNAc(b1-3)Gal(b1-4)GlcNAc(b1-3)Gal(b1-4)GlcNAc
Procedure, shortened: as §1

[10] = biological target: Neu5Ac(a2-3)Gal(b1-4)GlcNAc(b1-3)Gal(b1-4)GlcNAc(b1-3)Gal(b1-4)GlcNAc(b1-2)Man(a1-3)[Neu5Ac(a2-3)Gal(b1-4)GlcNAc(b1-3)Gal(b1-4)GlcNAc(b1-3)Gal(b1-4)GlcNAc(b1-2)Man(a1-6)]GalNAc
Procedure, shortened: as §1

[11] = biological target: Neu5Ac(a2-3)Gal(b1-4)GlcNAc(b1-3)Gal(b1-4)GlcNAc(b1-3)GalNAc
Procedure, shortened: as §1

[12] = biological target: Neu5Ac(a2-3)Gal(b1-4)GlcNAc(b1-3)Gal(b1-4)GlcNAc(b1-3)[Neu5Ac(a2-3)Gal(b1-4)GlcNAc(b1-3)Gal(b1-4)GlcNAc(b1-6)]GalNAc
Procedure, shortened: as §1

[13] = biological target: Neu5Ac(a2-3)Gal(b1-4)GlcNAc(b1-3)Gal(b1-4)GlcNAc(b1-6)[Gal(b1-3)]GalNAc
Procedure, shortened: as §1

[14] = biological target: Neu5Ac(a2-3)Gal(b1-4)GlcNAc(b1-3)Gal(b1-4)[Fuc(a1-3)]GlcNAc
Procedure, shortened: as §1

[15] = biological target: Neu5Ac(a2-3)Gal(b1-4)GlcNAc(b1-3)GalNAc
Procedure, shortened: as §1

[16] = biological target: Neu5Ac(a2-3)Gal(b1-4)GlcNAc(b1-3)[Neu5Ac(a2-3)Gal(b1-4)GlcNAc(b1-6)]GalNAc
Procedure, shortened: as §1

[17] = biological target: Neu5Ac(a2-3)Gal(b1-4)GlcNAc(b1-6)GalNAc
Procedure, shortened: as §1

[18] = biological target: Neu5Ac(a2-3)Gal(b1-4)GlcNAc(b1-6)[Gal(b1-3)]GalNAc
Procedure, shortened: as §1

[19] = biological target: Neu5Ac(a2-3)Gal(b1-4)GlcNAc(b1-6)[Neu5Ac(a2-3)Gal(b1-3)]GalNAc
Procedure, shortened: as §1

[20] = biological target: Neu5Ac(a2-3)Gal(b1-4)GlcNAc6S
Procedure, shortened: as §1

[21] = biological target: Neu5Ac(a2-3)Gal(b1-4)[Fuc(a1-3)]GlcNAc
Procedure, shortened: as §1

[22] = biological target: Neu5Ac(a2-3)Gal(b1-4)[Fuc(a1-3)]GlcNAc(b1-2)Man
Procedure, shortened: as §1

[23] = biological target: Neu5Ac(a2-3)Gal(b1-4)[Fuc(a1-3)]GlcNAc(b1-3)Gal
Procedure, shortened: as §1

[24] = biological target: Neu5Ac(a2-3)Gal(b1-4)[Fuc(a1-3)]GlcNAc(b1-3)Gal(b1-4)GlcNAc
Procedure, shortened: as §1

[25] = biological target: Neu5Ac(a2-3)Gal(b1-4)[Fuc(a1-3)]GlcNAc(b1-3)Gal(b1-4)[Fuc(a1-3)]GlcNAc(b1-3)Gal(b1-4)[Fuc(a1-3)]GlcNAc
Procedure, shortened: as §1

[26] = biological target: Neu5Ac(a2-3)Gal(b1-4)[Fuc(a1-3)]GlcNAc(b1-3)GalNAc
Procedure, shortened: as §1

[27] = biological target: Neu5Ac(a2-3)Gal(b1-4)[Fuc(a1-3)]GlcNAc(b1-6)[Gal(b1-3)]GalNAc
Procedure, shortened: as §1

[28] = biological target: Neu5Ac(a2-3)Gal(b1-4)[Fuc(a1-3)]GlcNAc(b1-6)[Neu5Ac(a2-3)Gal(b1-3)]GalNAc
Procedure, shortened: as §1

[29] = biological target: Neu5Ac(a2-3)Gal(b1-4)[Fuc(a1-3)]GlcNAc6S
Procedure, shortened: as §1

[30] = biological target: Neu5Ac(a2-3)Gal6S(b1-4)GlcNAc
Procedure, shortened: as §1

[31] = biological target: Neu5Ac(a2-3)Gal6S(b1-4)[Fuc(a1-3)]GlcNAc
Procedure, shortened: as §1

Neu5Ac(a2-3)GalNAc = biological target: Neu5Ac(a2-3)GalNAc
Procedure, shortened: as §1

[32] = biological target: Neu5Ac(a2-3)GalNAc(b1-4)GlcNAc
Procedure, shortened: as §1

[33] = biological target: Neu5Ac(a2-3)[GalNAc(b1-4)]Gal(b1-4)Glc
Procedure, shortened: as §1

[34] = biological target: Neu5Ac(a2-3)[GalNAc(b1-4)]Gal(b1-4)GlcNAc
Procedure, shortened: as §1

[35] = biological target: Neu5Ac(a2-3)[GalNAc(b1-4)]Gal(b1-4)GlcNAc(b1-3)GalNAc
Procedure, shortened: as §1

[36] = biological target: Neu5Ac(a2-3)[Neu5Ac(a2-6)]GalNAc
Procedure, shortened: as §1

Neu5Ac(a2-6)Gal = biological target: Neu5Ac(a2-6)Gal
Procedure, shortened: as §1

[37] = biological target: Neu5Ac(a2-6)Gal(b1-3)GlcNAc(b1-3)[Gal(b1-4)GlcNAc(b1-6)]Gal(b1-4)Glc
Procedure, shortened: as §1

Neu5Ac(a2-6)Gal(b1-4)Glc = biological target: Neu5Ac(a2-6)Gal(b1-4)Glc
Procedure, shortened: as §1

[38] = biological target: Neu5Ac(a2-6)Gal(b1-4)GlcNAc
Procedure, shortened: as §1

[39] = biological target: Neu5Ac(a2-6)Gal(b1-4)GlcNAc(b1-2)Man
Procedure, shortened: as §1

[40] = biological target: Neu5Ac(a2-6)Gal(b1-4)GlcNAc(b1-2)Man(a1-3)Man(b1-4)GlcNAc(b1-4)GlcNAc
Procedure, shortened: as §1

[41] = biological target: Neu5Ac(a2-6)Gal(b1-4)GlcNAc(b1-2)Man(a1-3)[Gal(b1-4)GlcNAc(b1-2)Man(a1-6)]Man(b1-4)GlcNAc(b1-4)GlcNAc
Procedure, shortened: as §1

[42] = biological target: Neu5Ac(a2-6)Gal(b1-4)GlcNAc(b1-2)Man(a1-3)[GlcNAc(b1-2)Man(a1-6)]Man(b1-4)GlcNAc(b1-4)GlcNAc
Procedure, shortened: as §1

B1: rAAL-I144G (Agrocybe aegerita), Q6WY08 (protein)
chain: MQGVNIYNISAGTSVDLAAPVTTGDIVTFFSSALNLNAGAGNPNNTTLNLFAENGAYLLHIAFRLQENVIIFNSRQPDGPWLVEQRVSDVANQFAGIDGKAMVTVFDHGDKYQVVINEKTVIQYTKQISGLTLSLSYNATEETSGFSTVVEAVTYTGLALEHHHHHH
- glycan array binding signal (z-score) [1]: -0.038
- glycan array binding signal (z-score) [2]: 0.078
- glycan array binding signal (z-score) [3]: 0.232
- glycan array binding signal (z-score) [4]: -0.073
- glycan array binding signal (z-score) [5]: -0.059
- glycan array binding signal (z-score) [6]: -0.12
- glycan array binding signal (z-score) [7]: -0.053
- glycan array binding signal (z-score) [8]: -0.204
- glycan array binding signal (z-score) [9]: -0.072
- glycan array binding signal (z-score) [10]: -0.08
- glycan array binding signal (z-score) [11]: -0.197
- glycan array binding signal (z-score) [12]: -0.092
- glycan array binding signal (z-score) [13]: -0.181
- glycan array binding signal (z-score) [14]: -0.208
- glycan array binding signal (z-score) [15]: -0.117
- glycan array binding signal (z-score) [16]: -0.083
- glycan array binding signal (z-score) [17]: -0.197
- glycan array binding signal (z-score) [18]: -0.179
- glycan array binding signal (z-score) [19]: 0.584
- glycan array binding signal (z-score) [20]: -0.146
- glycan array binding signal (z-score) [21]: -0.12
- glycan array binding signal (z-score) [22]: -0.107
- glycan array binding signal (z-score) [23]: -0.169
- glycan array binding signal (z-score) [24]: -0.075
- glycan array binding signal (z-score) [25]: -0.032
- glycan array binding signal (z-score) [26]: -0.096
- glycan array binding signal (z-score) [27]: -0.045
- glycan array binding signal (z-score) [28]: -0.121
- glycan array binding signal (z-score) [29]: -0.126
- glycan array binding signal (z-score) [30]: -0.167
- glycan array binding signal (z-score) [31]: -0.227
- glycan array binding signal (z-score) (Neu5Ac(a2-3)GalNAc): -0.092
- glycan array binding signal (z-score) [32]: -0.11
- glycan array binding signal (z-score) [33]: -0.14
- glycan array binding signal (z-score) [34]: -0.057
- glycan array binding signal (z-score) [35]: -0.153
- glycan array binding signal (z-score) [36]: -0.052
- glycan array binding signal (z-score) (Neu5Ac(a2-6)Gal): -0.158
- glycan array binding signal (z-score) [37]: -0.1
- glycan array binding signal (z-score) (Neu5Ac(a2-6)Gal(b1-4)Glc): -0.149
- glycan array binding signal (z-score) [38]: -0.13
- glycan array binding signal (z-score) [39]: -0.124
- glycan array binding signal (z-score) [40]: -0.153
- glycan array binding signal (z-score) [41]: -0.17
- glycan array binding signal (z-score) [42]: -0.121
